Holding throughout (experiment): glycan array binding signal (z-score within array); higher = stronger binding
Settings in all cases: glycan notation: IUPAC condensed, linker removed

In assay [1] the target is Gal(b1-4)GlcNAc(b1-2)[Gal(b1-4)GlcNAc(b1-6)]Man(a1-6)[GlcNAc(b1-4)][Gal(b1-4)GlcNAc(b1-2)Man(a1-3)]Man(b1-4)GlcNAc(b1-4)GlcNAc. Put shortly: (§1)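 The Consortium for Functional Glycomics database supplied 3228 glycan arrays, of which those lacking an available protein sequence were dropped. The binding signal, a within-array Z-score, was averaged across arrays of the same protein sequence and across linkers. Negative scores can be read as non-binding.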

The target in assay [2] is Gal(b1-4)GlcNAc(b1-2)[Gal(b1-4)GlcNAc(b1-6)]Man(a1-6)[GlcNAc(b1-4)][Gal(b1-4)GlcNAc(b1-2)[Gal(b1-4)GlcNAc(b1-4)]Man(a1-3)]Man(b1-4)GlcNAc(b1-4)[Fuc(a1-6)]GlcNAc. Put shortly: as §1
For assay [3], the target named is Gal(b1-4)GlcNAc(b1-3)Gal(b1-3)GalNAc. Put shortly:
as §1

The target of assay [4] is Gal(b1-4)GlcNAc(b1-3)Gal(b1-3)GlcNAc. Put shortly:
as §1

In assay [5] the target is Gal(b1-4)GlcNAc(b1-3)Gal(b1-4)Glc. Put shortly:
as §1

Assay [6] addresses Gal(b1-4)GlcNAc(b1-3)Gal(b1-4)GlcNAc. Put shortly: as §1
Assay [7] concerns the target Gal(b1-4)GlcNAc(b1-3)Gal(b1-4)GlcNAc(b1-2)Man(a1-3)[Gal(b1-4)GlcNAc(b1-3)Gal(b1-4)GlcNAc(b1-2)Man(a1-6)]Man(b1-4)GlcNAc(b1-4)GlcNAc. Put shortly:
as §1

Assay [8] deals with Gal(b1-4)GlcNAc(b1-3)Gal(b1-4)GlcNAc(b1-2)Man(a1-3)[Gal(b1-4)GlcNAc(b1-3)Gal(b1-4)GlcNAc(b1-2)Man(a1-6)]Man(b1-4)GlcNAc(b1-4)[Fuc(a1-6)]GlcNAc. Put shortly:
as §1

Assay [9] addresses Gal(b1-4)GlcNAc(b1-3)Gal(b1-4)GlcNAc(b1-2)[Gal(b1-4)GlcNAc(b1-3)Gal(b1-4)GlcNAc(b1-6)]Man(a1-6)[Gal(b1-4)GlcNAc(b1-3)Gal(b1-4)GlcNAc(b1-2)Man(a1-3)]Man(b1-4)GlcNAc(b1-4)GlcNAc. Put shortly: as §1
Assay [10] addresses Gal(b1-4)GlcNAc(b1-3)Gal(b1-4)GlcNAc(b1-2)[Gal(b1-4)GlcNAc(b1-3)Gal(b1-4)GlcNAc(b1-6)]Man(a1-6)[Gal(b1-4)GlcNAc(b1-3)Gal(b1-4)GlcNAc(b1-2)Man(a1-3)]Man(b1-4)GlcNAc(b1-4)[Fuc(a1-6)]GlcNAc. Put shortly: as §1
Assay [11] concerns the target Gal(b1-4)GlcNAc(b1-3)Gal(b1-4)GlcNAc(b1-3)Gal(b1-4)GlcNAc. Put shortly: as §1
For assay [12], the target named is Gal(b1-4)GlcNAc(b1-3)Gal(b1-4)GlcNAc(b1-3)Gal(b1-4)GlcNAc(b1-2)Man(a1-3)[Gal(b1-4)GlcNAc(b1-3)Gal(b1-4)GlcNAc(b1-3)Gal(b1-4)GlcNAc(b1-2)Man(a1-6)]Man(b1-4)GlcNAc(b1-4)GlcNAc. Put shortly:
as §1

For assay [13], the target named is Gal(b1-4)GlcNAc(b1-3)Gal(b1-4)GlcNAc(b1-3)Gal(b1-4)GlcNAc(b1-2)Man(a1-3)[Gal(b1-4)GlcNAc(b1-3)Gal(b1-4)GlcNAc(b1-3)Gal(b1-4)GlcNAc(b1-2)Man(a1-6)]Man(b1-4)GlcNAc(b1-4)[Fuc(a1-6)]GlcNAc. Put shortly: as §1
The target of assay [14] is Gal(b1-4)GlcNAc(b1-3)Gal(b1-4)GlcNAc(b1-3)Gal(b1-4)GlcNAc(b1-2)[Gal(b1-4)GlcNAc(b1-3)Gal(b1-4)GlcNAc(b1-3)Gal(b1-4)GlcNAc(b1-6)]Man(a1-6)[Gal(b1-4)GlcNAc(b1-3)Gal(b1-4)GlcNAc(b1-3)Gal(b1-4)GlcNAc(b1-2)Man(a1-3)]Man(b1-4)GlcNAc(b1-4)[Fuc(a1-6)]GlcNAc. Put shortly:
as §1

The target in assay [15] is Gal(b1-4)GlcNAc(b1-3)Gal(b1-4)GlcNAc(b1-3)Gal(b1-4)GlcNAc(b1-3)Gal(b1-4)GlcNAc(b1-2)Man(a1-3)[Gal(b1-4)GlcNAc(b1-3)Gal(b1-4)GlcNAc(b1-3)Gal(b1-4)GlcNAc(b1-3)Gal(b1-4)GlcNAc(b1-2)Man(a1-6)]Man(b1-4)GlcNAc(b1-4)GlcNAc. Put shortly: as §1
Assay [16] deals with Gal(b1-4)GlcNAc(b1-3)Gal(b1-4)GlcNAc(b1-3)Gal(b1-4)GlcNAc(b1-3)Gal(b1-4)GlcNAc(b1-2)Man(a1-3)[Gal(b1-4)GlcNAc(b1-3)Gal(b1-4)GlcNAc(b1-3)Gal(b1-4)GlcNAc(b1-3)Gal(b1-4)GlcNAc(b1-2)Man(a1-6)]Man(b1-4)GlcNAc(b1-4)[Fuc(a1-6)]GlcNAc. Put shortly:
as §1

For assay [17], the target named is Gal(b1-4)GlcNAc(b1-3)Gal(b1-4)GlcNAc(b1-3)Gal(b1-4)GlcNAc(b1-3)Gal(b1-4)GlcNAc(b1-2)[Gal(b1-4)GlcNAc(b1-3)Gal(b1-4)GlcNAc(b1-3)Gal(b1-4)GlcNAc(b1-3)Gal(b1-4)GlcNAc(b1-6)]Man(a1-6)[Gal(b1-4)GlcNAc(b1-3)Gal(b1-4)GlcNAc(b1-3)Gal(b1-4)GlcNAc(b1-3)Gal(b1-4)GlcNAc(b1-2)Man(a1-3)]Man(b1-4)GlcNAc(b1-4)[Fuc(a1-6)]GlcNAc. Put shortly: as §1
For assay [18], the target named is Gal(b1-4)GlcNAc(b1-3)Gal(b1-4)GlcNAc(b1-3)Gal(b1-4)GlcNAc(b1-3)Gal(b1-4)GlcNAc(b1-3)Gal(b1-4)GlcNAc(b1-2)Man(a1-3)[Gal(b1-4)GlcNAc(b1-3)Gal(b1-4)GlcNAc(b1-3)Gal(b1-4)GlcNAc(b1-3)Gal(b1-4)GlcNAc(b1-3)Gal(b1-4)GlcNAc(b1-2)Man(a1-6)]Man(b1-4)GlcNAc(b1-4)GlcNAc. Put shortly: as §1
The target in assay [19] is Gal(b1-4)GlcNAc(b1-3)Gal(b1-4)GlcNAc(b1-3)Gal(b1-4)GlcNAc(b1-3)Gal(b1-4)GlcNAc(b1-3)Gal(b1-4)GlcNAc(b1-2)Man(a1-3)[Gal(b1-4)GlcNAc(b1-3)Gal(b1-4)GlcNAc(b1-3)Gal(b1-4)GlcNAc(b1-3)Gal(b1-4)GlcNAc(b1-3)Gal(b1-4)GlcNAc(b1-2)Man(a1-6)]Man(b1-4)GlcNAc(b1-4)[Fuc(a1-6)]GlcNAc. Put shortly: as §1
For assay [20], the target named is Gal(b1-4)GlcNAc(b1-3)Gal(b1-4)GlcNAc(b1-3)Gal(b1-4)GlcNAc(b1-3)Gal(b1-4)GlcNAc(b1-3)Gal(b1-4)GlcNAc(b1-2)[Gal(b1-4)GlcNAc(b1-3)Gal(b1-4)GlcNAc(b1-3)Gal(b1-4)GlcNAc(b1-3)Gal(b1-4)GlcNAc(b1-3)Gal(b1-4)GlcNAc(b1-6)]Man(a1-6)[Gal(b1-4)GlcNAc(b1-3)Gal(b1-4)GlcNAc(b1-3)Gal(b1-4)GlcNAc(b1-3)Gal(b1-4)GlcNAc(b1-3)Gal(b1-4)GlcNAc(b1-2)Man(a1-3)]Man(b1-4)GlcNAc(b1-4)[Fuc(a1-6)]GlcNAc. Put shortly:
as §1

Assay [21] concerns the target Gal(b1-4)GlcNAc(b1-3)Gal(b1-4)GlcNAc(b1-3)Gal(b1-4)GlcNAc(b1-3)Gal(b1-4)GlcNAc(b1-3)Gal(b1-4)GlcNAc(b1-3)Gal(b1-4)GlcNAc(b1-2)Man(a1-3)[Gal(b1-4)GlcNAc(b1-3)Gal(b1-4)GlcNAc(b1-3)Gal(b1-4)GlcNAc(b1-3)Gal(b1-4)GlcNAc(b1-3)Gal(b1-4)GlcNAc(b1-3)Gal(b1-4)GlcNAc(b1-2)Man(a1-6)]Man(b1-4)GlcNAc(b1-4)GlcNAc. Put shortly: as §1
Assay [22] deals with Gal(b1-4)GlcNAc(b1-3)Gal(b1-4)GlcNAc(b1-3)GalNAc. Put shortly:
as §1

For assay [23], the target named is Gal(b1-4)GlcNAc(b1-3)Gal(b1-4)GlcNAc(b1-3)[Gal(b1-4)GlcNAc(b1-3)Gal(b1-4)GlcNAc(b1-6)]GalNAc. Put shortly: as §1

This is one part of the list.

B1: LecB LY19 (Pseudomonas aeruginosa) (protein)
chain: MATQGVFTLPANTQFGVTAFANSAGTQTVNVQVNNETVATFTGQSTNNGIIGSKVLNSGGGGKVQILVSVNGRSSDLVSAQVILANELNFALVGSEDSTDNDYNDAVVVINWPLG
Take B1: the “glycan array binding signal (z-score)” value in [1] was -0.542; in [2], 0; in assay [3] it was -0.557; in [4], -0.443; in [5] it was -0.478; in assay [6] it was -0.549. For the same molecule, the “glycan array binding signal (z-score)” value in assay [7] was -0.523; in assay [8], 0.535; in assay [9], -0.357; in assay [10] it was 0.367; in assay [11], -0.536; in assay [12], -0.517. In addition, the “glycan array binding signal (z-score)” value in assay [13] was 0.469; in [14] it was 0.039; in assay [15], -0.45; in [16] it was 0.457; in assay [17] it was 0.294; in assay [18] it was -0.457. For the same molecule, the “glycan array binding signal (z-score)” value was 0.867 in [19]; 0.395 in [20]; -0.438 in [21]; -0.546 in [22]; -0.541 in assay [23].
